Results as given in PubChem BioAssay (NCI).
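Five compound concentrations were applied to cells in 96-well plates for 48 hours; endpoints were derived by simple linear interpolation of the resulting dose-response curve. GI50: concentration for 50% inhibition of growth.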 For part of its entries the source gives two or more results. The list is limited to them. An entry can have further records. For some of these results: Values that stand side by side repeat one measurement (runs, samples, wells, individuals or studies). Marks in square brackets tell the records apart. The letters are not those of the source and start again with each entry.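 TGI marks complete inhibition of growth.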 For some of these results: The tests behind the records often covered other concentration ranges, not given here; a value can be the end of its range.

What was measured:
Experiment in all cases: inhibition of tumour cell growth, NCI panel, 48 h
BT-549 breast = system: BT-549 breast
NCI/ADR-RES ovarian = system: NCI/ADR-RES ovarian
UACC-62 melanoma = system: UACC-62 melanoma
K-562 leukemia = system: K-562 leukemia
OVCAR-4 ovarian = system: OVCAR-4 ovarian
SNB-19 CNS = system: SNB-19 CNS
UO-31 renal = system: UO-31 renal

SMILES | TGI (BT-549 breast) | TGI (NCI/ADR-RES ovarian) | TGI (UACC-62 melanoma) | GI50 (K-562 leukemia) | TGI (OVCAR-4 ovarian) | TGI (SNB-19 CNS) | TGI (UO-31 renal)
CCOC(=O)c1[nH]c(Br)c(-c2ccc(Br)cc2)c1Br | 5.37 µM and 55.4 µM | 462 nM and 11 µM | 828 nM and 44.2 µM |  |  |  | 
COc1ncc(-c2ccc3nccc(-c4ccnnc4)c3c2)cc1NS(=O)(=O)c1ccc(F)cc1F |  |  |  | 16.7 nM [sample A, mean of 2 tests] and 307 nM [sample B, mean of 2 tests] | > 10 µM [sample A, mean of 2 tests] and 718 nM [sample B, mean of 2 tests] | 1.04 µM [sample A, 1 test] and 18.3 µM [sample B, mean of 2 tests] | > 4.03 µM [sample A, mean of 2 tests] and 273 nM [sample B, mean of 2 tests]
